This passage reports cell count results from the supplement of paper PMC4604168 (melanoma cell lines).

Holding throughout (test): cell count relative to DMSO control; melanoma cells; higher = more viable cells
Settings in all cases: library dose: standard library concentration; 72 h

In experiment [1] the test system is A101D.
Experiment [2] concerns A2058.
Experiment [3] concerns A375.

Molecules are shown by their SMILES. Some of the results follow. Single values are uncertain, as repeats are few or missing.
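Further: cells treated in 1,536-well plates, then fixed and DAPI-stained, with nuclei counted from automated high-throughput microscope images.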

With `O=C(/C=C/c1cccnc1)NCCCCC1CCN(C(=O)c2ccccc2)CC1` + Cc1ccc(NC(=O)c2cccc(N(C)C)c2)cc1NC(=O)c1ccc(O)cc1 [ZM336372] (first compound 0.05 µM, partner dose 10 µM), the cell count came to 93.4% in experiment [1], 154% in experiment [2] and 119% in experiment [3].

Consider `Cc1ccc(Nc2nccc(N(C)c3ccc4c(C)n(C)nc4c3)n2)cc1S(N)(=O)=O` [Pazopanib] + CC1(C)NC(=O)N(c2ccc([N+](=O)[O-])c(C(F)(F)F)c2)C1=O [nilutamide] (first compound 2 µM, partner dose 5 µM), for which the figures for the cell count in experiment [1], in experiment [2] and in experiment [3] were 92.3%, 107% and 93.5%, respectively.

As for `CC1(C)CCC(c2ccc(Cl)cc2)=C(CN2CCN(c3ccc(C(=O)NS(=O)(=O)c4ccc(N[C@H](CCN5CCOCC5)CSc5ccccc5)c(S(=O)(=O)C(F)(F)F)c4)cc3)CC2)C1` + Cn1cncc1[C@@](N)(c1ccc(Cl)cc1)c1ccc2c(c1)c(-c1cccc(Cl)c1)cc(=O)n2C [tipifarnib] (first compound 2 µM, partner dose 0.05 µM), the values for the cell count in experiment [1], in experiment [2] and in experiment [3] were 38.2%, 85.5% and 63.9%, respectively.

With `O=C(/C=C/c1cccnc1)NCCCCC1CCN(C(=O)c2ccccc2)CC1` + C[C@@H](Oc1cc(-c2cnn(C3CCNCC3)c2)cnc1N)c1c(Cl)ccc(F)c1Cl [Crizotinib] (first compound 0.05 µM, partner dose 1 µM), the cell count was 83.1% in experiment [1], 94% in experiment [2] and 123% in experiment [3].

As for `Cc1ccc(Nc2nccc(N(C)c3ccc4c(C)n(C)nc4c3)n2)cc1S(N)(=O)=O` [Pazopanib] + Cc1nc(Nc2ncc(C(=O)Nc3c(C)cccc3Cl)s2)cc(N2CCN(CCO)CC2)n1 [dasatanib] (first compound 2 µM, partner dose 0.02 µM), the cell count was determined as 64.7% in experiment [1], 58.3% in experiment [2] and 69.1% in experiment [3].
